“And” between values parts separate entries of the source, which are not always exact repeats. Identical values can stand only once. The list shows a part of the results. The main result of the screen is listed elsewhere. These columns were measured beside it and carry no call.

Among the data in PubChem BioAssay AID1745853 (National Center for Advancing Translational Sciences (NCATS), 2022) are activity change, negative = inhibition values, retold here.

What all share (assay): Primary Screen for Target Class Profiling of Small Molecule Inhibitors of Methyltransferases
Assay [1] addresses Glycine N-methyltransferase (Homo sapiens) (UniProt Q14749). The settings on record: purified enzyme, MTase-Glo SAH luminescence; measured here: GNMT inhibition; at 40 µM; stronger effect = lower value. Summed up:
(§1)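 Each enzyme was reacted with SAM and its substrate, with compounds tested once at 40 uM; SAH formed was read by MTase-Glo luminescence.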

Assay [2] addresses Guanidinoacetate N-methyltransferase (Homo sapiens) (UniProt Q14353). The following applies: purified enzyme, MTase-Glo SAH luminescence; measured here: GAMT inhibition; at 40 µM; stronger effect = lower value. Put shortly: as §1
The target in assay [3] is Histamine N-methyltransferase (Homo sapiens) (UniProt P50135). The following applies: purified enzyme, MTase-Glo SAH luminescence; measured here: HNMT inhibition; at 40 µM; stronger effect = lower value. Summed up: as §1
Assay [4] has as its target Nicotinamide N-methyltransferase (Homo sapiens) (UniProt P40261). The following applies: purified enzyme, MTase-Glo SAH luminescence; measured here: NNMT inhibition; at 40 µM; stronger effect = lower value. Summed up:
as §1

Assay [5] has as its target Phenylethanolamine N-methyltransferase (Homo sapiens) (UniProt P11086). The following applies: purified enzyme, MTase-Glo SAH luminescence; measured here: PNMT inhibition; at 40 µM; stronger effect = lower value. Put shortly:
as §1
On the % scale 0 is the no-effect control and ±100 the full control effect.

Turning to `COc1ccc(OC)c(S(=O)(=O)N2CCCCC2)c1`, the activity change, negative = inhibition in assay [1] is -0.751%; in assay [2] it was 4.08%; in assay [3], 4.87%; in assay [4] it was 3.05%; in assay [5], 0.999%.
`COc1ccc(S(=O)(=O)Nc2cccnc2Nc2ccc(O)cc2)cc1`: the activity change, negative = inhibition in assay [1] was 4.72%; in assay [2] it was -4.52%; in assay [3], 7.33%; in assay [4], -21.2%; in assay [5] it was -16.5%.
On the same counts, the results for `O=C(Nc1cc2cc[nH]c2cn1)c1ccccc1` are -88%, -85.2%, -77.1%, -89.6% and -81.6%.
On the same counts, the results for `CC(=O)Nc1c2n(c3ccc(F)cc13)CC(C)(C(=O)NC1CCCCCC1)N(CCC(C)C)C2=O` (stereo not given) are -6.01%, -2.36%, -1.03%, -6.98% and -2.43%.
The matching figures for `CNc1nc(C)nc(N[C@H]2CCC[C@@H](C(=O)NCc3ccc(C#N)cc3C(F)(F)F)C2)n1`: 3.65%, -0.172%, 7.79%, -28.1% and -0.362%.
`C=CCCN1CCC2(CC1)CN(C(=O)c1c(F)cccc1F)c1ccc(Cl)cc12`: the activity change, negative = inhibition in assay [1] was -2.48%; in assay [2] it was 3%; in assay [3] it was 8.63%; in assay [4] it was -27.2%; in assay [5] it was -4.29%.
On to `Cc1ccc(N2CC(c3noc(-c4ccc5ccccc5n4)n3)CC2=O)cc1` (stereo not given), for which the activity change, negative = inhibition was -5.09% in assay [1]; -12.7% in assay [2]; -5.99% in assay [3]; -15.8% in assay [4]; -11.5% in assay [5].
As for `COC(=O)c1cc2n(n1)CC(C)(C(=O)NC1CCC(C)CC1)N(c1ccc(C)cc1Cl)C2=O` (stereo not given), the activity change, negative = inhibition was 5.03% in assay [1]; 0.008% in assay [2]; 10.3% in assay [3]; -1.03% in assay [4]; 3.37% in assay [5].
On the same counts, the results for `COCCn1ncc(N2CCC(C(=O)N3CCN(C(C)C)CC3)C2)cc1=O` (stereo not given) are -4.56%, -9.48%, -2.32%, -9.51% and -3.26%.
The matching figures for `CCCC1c2cccn2CCN1C(=O)Nc1ccc(C)cc1` (stereo not given): -0.965%, 5.04%, -5.63%, 7.27% and 8.69%.
Turning to `C[C@@H]1O[C@@H](O[C@H]2[C@@H]3C=CO[C@@H](O[C@@H]4O[C@H](CO)[C@@H](O)[C@H](O)[C@H]4O)[C@@H]3[C@@]3(CO)O[C@@H]23)[C@H](OC(=O)/C=C/c2ccccc2)[C@H](O)[C@H]1O`, the activity change, negative = inhibition in assay [1] was -2.72%; in assay [2], -10.1%; in assay [3], 1.83%; in assay [4], -17.9%; in assay [5] it was -0.984%.
On the same counts, the results for `CC1(C(=O)NC2CCCCC2)Cn2c(ccc2-c2ccco2)C(=O)N1CCN1CCCCCC1` (stereo not given) are 1.25%, 2.63%, -6.58%, 2.03% and -1.78%.
On the same counts, the results for `CC(=O)Nc1c2n(c3ccc(F)cc13)CC(C)(C(=O)NCCC(C)C)N(Cc1cccs1)C2=O` (stereo not given) are -8.99%, 1.23%, 3.74%, -0.243% and 0.631%.
With `CC(C)NC(=O)CSc1nnc2n(C)c(=O)c3ccc(C(=O)NC4CCCC4)cc3n12`, the activity change, negative = inhibition in assay [1] was -3.85%; in assay [2] it was 4%; in assay [3] it was 3.94%; in assay [4] it was -0.848%; in assay [5] it was 1.54%.
With `C[C@H](Oc1ccc(S(C)(=O)=O)cc1C(=O)N1CCN(c2ncc(C(F)(F)F)cc2F)CC1)C(F)(F)F`, the activity change, negative = inhibition in assay [1] was -3.79%; in assay [2], 7.71%; in assay [3], 9.54%; in assay [4] it was -11.4%; in assay [5], -0.618%.
Consider `COc1ccc(OC2CCN(C3CCCC3)CC2)c(C(=O)NCCCN2CCCC2=O)c1`, for which the activity change, negative = inhibition in assay [1] was 5.21%; in assay [2], 1.38%; in assay [3] it was -9.05%; in assay [4], 0.226%; in assay [5], -6.52%.
The matching figures for `CCOc1ccc(CCNC(=O)c2cc3n(n2)CC(C)(C(=O)NCc2ccc(F)cc2)N(C)C3=O)cc1` (stereo not given): -0.343%, 2.33%, -8.43%, 6.25% and -0.122%.
The matching figures for `CC(C)CCNC(=O)C1(C)Cn2nc(C(=O)NCCCN3CCCCC3)cc2C(=O)N1C` (stereo not given): 1.89%, 4.29%, -2.2%, 7.65% and 2.3%.
The matching figures for `NC(c1ccccc1)c1nnc2n1CCN(C(=O)N1CCOCC1)C2` (stereo not given): -7.38%, -7.47%, -0.739%, -4.31% and -3.78%.
For the compound `c1cnc2cc3c(cc2n1)C1CNCC3C1`, the activity change, negative = inhibition is -10.9% and 1.25% in assay [1]; 11.9% and -1.54% in assay [2]; 6.76% and 0.365% in assay [3]; -2.27% and -13.3% in assay [4]; 7.2% and -6.69% in assay [5].
In the case of `CCc1ccc2c(-c3cccc(Cl)c3)nc(=O)n(CC)c2n1`, the activity change, negative = inhibition in assay [1] is 0.995%; in assay [2] it was 13.6%; in assay [3], 9.57%; in assay [4] it was -13.4%; in assay [5] it was 1.87%.
`O=C(CCCCCCC(=O)Nc1ccccc1)NO`: the activity change, negative = inhibition in assay [1] is 2.23%; in assay [2], 1.29%; in assay [3] it was 7.86%; in assay [4], -9.84%; in assay [5], -0.499%.
On the same counts, the results for `COc1ccc(C(=O)Nc2nc3c(s2)C[C@@H]2[C@](C)(CO)[C@H](O)CC[C@@]2(C)[C@@H]3CC(=O)NC2CCCC2)cc1` are -4.1%, -2.58%, -4.39%, -7.8% and 3.27%.
The matching figures for `Clc1ccccc1C1(c2ccnc(C3CC3)n2)CCNCC1`: -6.06%, -7.79%, -28.4%, -34.2% and -11.2%.
The matching figures for `Cc1cc(F)ccc1-c1nc(NCCN=C(N)NC#N)nc2c1ccc(=O)n2-c1c(F)cccc1F`: -14%, -6.87%, 1.12%, -29.6% and -12.5%.
For the compound `CC1CCN(S(=O)(=O)c2ccc3c(c2)oc(=O)n3CC(=O)NCc2ccc(F)cc2)CC1`, the activity change, negative = inhibition in assay [1] is 1.51%; in assay [2] it was 0.817%; in assay [3], -1.07%; in assay [4], 0.612%; in assay [5] it was -1.16%.
In the case of `Cc1occc1C(=O)N1CC(F)(F)C[C@H]1c1nnc(C2CC2)o1`, the activity change, negative = inhibition in assay [1] is -0.893%; in assay [2], -2.22%; in assay [3] it was 0.32%; in assay [4], -4.04%; in assay [5] it was 0.268%.
On the same counts, the results for `COc1ccc(OC)c(S(=O)(=O)N2CCc3nc(-c4ccccc4)ncc3C2)c1` are 2.51%, 0%, 2.6%, -0.752% and 2.5%.
The matching figures for `COc1ccccc1CCNC(=O)c1ncn2c1C(=O)N(C1CC1)C(C)(C(=O)NCc1ccc(F)cc1)C2` (stereo not given): 0.551%, 1.19%, 3.21%, 0.78% and 5.52%.
On the same counts, the results for `Cc1ccc(CNC(=O)Cn2nc3n(C(C)C)c(=O)c4ccc(C(=O)NCC(C)C)cc4n3c2=O)cc1` are 2.29%, 2.92%, 6.22%, -0.825% and 0.886%.
